Source: patent publication US11178870B2 (priority 2017, dated 2021)

Experiments:
Assay type in all cases: in vivo
Botrytis cinerea = assay: Test Example B: Gray mold on tomato; conditions: for control value, Test B (gray mold on tomato): Table 7, Test B; for Test B control value: Gray mold on tomato; for Test B control value (gray mold on tomato): class of control value, Table 7
[1] = test system: Blumeria graminis f. sp. hordei; assay: Test Example D: Powdery mildew on barley; conditions: for control value, Test D (powdery mildew on barley): Table 7, Test D; for Test D control value: Powdery mildew on barley; for Test D control value (powdery mildew on barley): class of control value, Table 7
Puccinia recondita = assay: Test Example E: Brown rust on wheat; conditions: for control value, Test E (brown rust on wheat): Table 7, Test E; for Test E control value: Brown rust on wheat; for Test E control value (brown rust on wheat): class of control value, Table 7
Alternaia brassicicola = assay: Test Example C: Alternaria sooty spot on cabbage; conditions: for control value, Test C (Alternaria sooty spot on cabbage): Table 7, Test C; for Test C control value: Alternaria sooty spot on cabbage; for Test C control value (Alternaria sooty spot on cabbage): class of control value, Table 7
Plasmopara viticola = assay: Test Example G: Downy mildew on vine; conditions: for control value, Test G (downy mildew on vine): 250 ppm sprayed (2.5 ml/pot) before inoculation, assessed 7 to 10 days after inoculation; for Test G control value: Downy mildew on vine, 250 ppm sprayed, 7 to 10 days after inoculation; for Test G control value / Test G control value (downy mildew on vine): 2.5 ml/pot; for Test G control value (downy mildew on vine): 250 ppm spray, investigated 7 to 10 days after inoculation

Row | SMILES | control value, Test B (gray mold on tomato) (Botrytis cinerea) | control value, Test D (powdery mildew on barley) [1] | control value, Test E (brown rust on wheat) (Puccinia recondita) | control value, Test C (Alternaria sooty spot on cabbage) (Alternaia brassicicola) | control value, Test G (downy mildew on vine) (Plasmopara viticola) | Test B control value (Botrytis cinerea) | Test D control value [1] | Test E control value (Puccinia recondita) | Test C control value (Alternaia brassicicola) | Test G control value (Plasmopara viticola) | further results
1 | O=c1c(Br)cc(-n2cc(F)cn2)c(-c2c(F)cc(F)cc2F)n1CC(F)F [Compound 283] | H (H shows the control value more than 50%) | H (H shows the control value more than 50%) | H (H shows the control value more than 50%) | H (H shows the control value more than 50%) | L (L shows the control value of 50% or less) |  |  |  |  |  | 
2 | CCn1c(-c2c(F)cccc2F)c(-c2cccnc2Cl)cc(I)c1=O [Compound 65] |  |  |  |  |  | H (H shows the control value more than 50%) | H (H shows the control value more than 50%) | H (H shows the control value more than 50%) | H (H shows the control value more than 50%) | H (H shows the control value more than 50%) | 
3 | CN1C(=O)CCC(c2ccsc2)=C1c1c(F)cccc1F [Compound 3] |  |  |  |  |  | L (L shows the control value of 50% or less) | L (L shows the control value of 50% or less) | H (H shows the control value more than 50%) | L (L shows the control value of 50% or less) | H (H shows the control value more than 50%) | 
4 | CCn1c(-c2ccc(OC)cc2Cl)c(-n2cc(Cl)cn2)cc(Br)c1=O [Compound 427] |  |  |  |  |  |  |  |  |  |  | Test B control value (gray mold on tomato) (Botrytis cinerea): H (H shows the control value more than 50%); Test D control value (powdery mildew on barley) [1]: L (L shows the control value of 50% or less); Test E control value (brown rust on wheat) (Puccinia recondita): H (H shows the control value more than 50%); Test C control value (Alternaria sooty spot on cabbage) (Alternaia brassicicola): H (H shows the control value more than 50%); Test G control value (downy mildew on vine) (Plasmopara viticola): L (L shows the control value of 50% or less)
5 | O=c1ccc(-c2ccsc2)c(-c2c(F)cccc2F)n1CC(F)F [Compound 493] |  |  |  |  |  |  |  |  |  |  | Test B control value (gray mold on tomato) (Botrytis cinerea): H (H shows the control value more than 50%); Test D control value (powdery mildew on barley) [1]: H (H shows the control value more than 50%); Test E control value (brown rust on wheat) (Puccinia recondita): H (H shows the control value more than 50%); Test C control value (Alternaria sooty spot on cabbage) (Alternaia brassicicola): H (H shows the control value more than 50%); Test G control value (downy mildew on vine) (Plasmopara viticola): H (H shows the control value more than 50%)
6 | CCn1c(-c2c(F)cc(OC)c(I)c2F)c(-n2cc(Cl)cn2)cc(I)c1=O [Compound 253] | H (H shows the control value more than 50%) | L (L shows the control value of 50% or less) | H (H shows the control value more than 50%) | H (H shows the control value more than 50%) | L (L shows the control value of 50% or less) |  |  |  |  |  | 
7 | CCn1c(-c2ccc(F)cc2F)c(-c2ccsc2C)ccc1=O [Compound 503] |  |  |  |  |  |  |  |  |  |  | Test B control value (gray mold on tomato) (Botrytis cinerea): H (H shows the control value more than 50%); Test D control value (powdery mildew on barley) [1]: H (H shows the control value more than 50%); Test E control value (brown rust on wheat) (Puccinia recondita): H (H shows the control value more than 50%); Test C control value (Alternaria sooty spot on cabbage) (Alternaia brassicicola): H (H shows the control value more than 50%); Test G control value (downy mildew on vine) (Plasmopara viticola): H (H shows the control value more than 50%)
8 | CCn1c(-c2c(F)cc(OC)cc2F)c(-c2cccnc2Cl)ccc1=O [Compound 79] |  |  |  |  |  | H (H shows the control value more than 50%) | H (H shows the control value more than 50%) | H (H shows the control value more than 50%) | H (H shows the control value more than 50%) | L (L shows the control value of 50% or less) | 
9 | CCn1c(-c2ccccc2OC)c(-n2cc(Cl)cn2)cc(Br)c1=O [Compound 241] | H (H shows the control value more than 50%) | L (L shows the control value of 50% or less) | H (H shows the control value more than 50%) | L (L shows the control value of 50% or less) | L (L shows the control value of 50% or less) |  |  |  |  |  | 
10 | CCn1c(-c2c(F)cccc2F)c(-n2cc(F)cn2)ccc1=O [Compound 318] | H (H shows the control value more than 50%) | H (H shows the control value more than 50%) | H (H shows the control value more than 50%) | H (H shows the control value more than 50%) | L (L shows the control value of 50% or less) |  |  |  |  |  | 
11 | CCn1c(-c2ccc(SC)cc2F)c(-n2ncc(C)c2Cl)cc(Br)c1=O [Compound 373] |  |  |  |  |  |  |  |  |  |  | Test B control value (gray mold on tomato) (Botrytis cinerea): H (H shows the control value more than 50%); Test D control value (powdery mildew on barley) [1]: L (L shows the control value of 50% or less); Test E control value (brown rust on wheat) (Puccinia recondita): H (H shows the control value more than 50%); Test C control value (Alternaria sooty spot on cabbage) (Alternaia brassicicola): H (H shows the control value more than 50%); Test G control value (downy mildew on vine) (Plasmopara viticola): H (H shows the control value more than 50%)
12 | CCn1c(-c2c(F)cc(F)cc2F)c(-n2cc(C(F)F)cn2)cc(Cl)c1=O [Compound 124] |  |  |  |  |  | H (H shows the control value more than 50%) | L (L shows the control value of 50% or less) | L (L shows the control value of 50% or less) | H (H shows the control value more than 50%) | L (L shows the control value of 50% or less) | 
13 | Cc1cnn(-c2ccc(=O)n(CC(F)F)c2-c2c(F)cccc2F)c1 [Compound 186] | H (H shows the control value more than 50%) | H (H shows the control value more than 50%) | H (H shows the control value more than 50%) | H (H shows the control value more than 50%) | L (L shows the control value of 50% or less) |  |  |  |  |  | 
14 | CCn1c(-c2c(F)cc(F)cc2F)c(-n2cc(C(F)(F)F)cn2)cc(C(F)(F)F)c1=O [Compound 154] |  |  |  |  |  | L (L shows the control value of 50% or less) | L (L shows the control value of 50% or less) | L (L shows the control value of 50% or less) | L (L shows the control value of 50% or less) | L (L shows the control value of 50% or less) | 
15 | Cc1cnn(-c2cc(Br)c(=O)n(C)c2-c2ccc(F)cc2C)c1 [Compound 513] |  |  |  |  |  |  |  |  |  |  | Test B control value (gray mold on tomato) (Botrytis cinerea): L (L shows the control value of 50% or less); Test D control value (powdery mildew on barley) [1]: L (L shows the control value of 50% or less); Test E control value (brown rust on wheat) (Puccinia recondita): H (H shows the control value more than 50%); Test C control value (Alternaria sooty spot on cabbage) (Alternaia brassicicola): H (H shows the control value more than 50%); Test G control value (downy mildew on vine) (Plasmopara viticola): L (L shows the control value of 50% or less)
16 | O=c1c(Br)cc(-n2cnc(Cl)c2Cl)c(-c2ccccc2Cl)n1CC(F)F [Compound 236] | H (H shows the control value more than 50%) | H (H shows the control value more than 50%) | H (H shows the control value more than 50%) | H (H shows the control value more than 50%) | H (H shows the control value more than 50%) |  |  |  |  |  | 
17 | Cc1cnn(-c2cc(Br)c(=O)n(CC(F)F)c2-c2ccc(F)cc2F)c1Cl [Compound 256] | H (H shows the control value more than 50%) | H (H shows the control value more than 50%) | H (H shows the control value more than 50%) | H (H shows the control value more than 50%) | L (L shows the control value of 50% or less) |  |  |  |  |  | 
18 | CCc1ccccc1-c1c(-n2ncc(C)c2Cl)cc(Br)c(=O)n1CC [Compound 322] | H (H shows the control value more than 50%) | H (H shows the control value more than 50%) | H (H shows the control value more than 50%) | H (H shows the control value more than 50%) | L (L shows the control value of 50% or less) |  |  |  |  |  | 
19 | CCn1c(-c2c(F)cc(F)cc2F)c(-c2ocnc2Br)cc(Cl)c1=O [Compound 113] |  |  |  |  |  | H (H shows the control value more than 50%) | H (H shows the control value more than 50%) | H (H shows the control value more than 50%) | H (H shows the control value more than 50%) | L (L shows the control value of 50% or less) | 
20 | Cn1c(-c2ccc(F)cc2Cl)c(-n2cc(Cl)cn2)cc(Br)c1=O [Compound 453] |  |  |  |  |  |  |  |  |  |  | Test B control value (gray mold on tomato) (Botrytis cinerea): H (H shows the control value more than 50%); Test D control value (powdery mildew on barley) [1]: L (L shows the control value of 50% or less); Test E control value (brown rust on wheat) (Puccinia recondita): H (H shows the control value more than 50%); Test C control value (Alternaria sooty spot on cabbage) (Alternaia brassicicola): H (H shows the control value more than 50%); Test G control value (downy mildew on vine) (Plasmopara viticola): L (L shows the control value of 50% or less)
21 | CCn1c(-c2c(F)cccc2F)c(-n2cccn2)ccc1=O [Compound 31] |  |  |  |  |  | H (H shows the control value more than 50%) | H (H shows the control value more than 50%) | L (L shows the control value of 50% or less) | H (H shows the control value more than 50%) | L (L shows the control value of 50% or less) | 
